Results taken from paper PMC4588566, “A covalent homodimer probing early oligomers along amyloid aggregation” (Scientific Reports, 2015).

Target: the molecule itself
Assay: SEC; refolded S33C β2m without an added oxidation reaction; spontaneously formed covalent dimer separated on Superdex75 16/60, 20 mM sodium phosphate pH 7.4

B1: S33C β2m variant (beta-2 microglobulin, Ser33 to Cys), one chain (natural protein)
chain: not shown
notes: beta-2 microglobulin (β2m), 99-residue globular protein, with Ser33 mutated to Cys; synthetic gene; also called Ser33 to Cys β2m variant; mutated β2m; source: E. coli BL21 (DE3), pET21B
Question: With B1 as the protein, how does the “stoichiometry N” value read?
Answer: The value was 2.
